# In PubChem BioAssay AID488969 (Vanderbilt High Throughput Screening Facility, 2010):
# Over roughly 110,000 compounds, “z-score” has its median near -0.1; the highest 2% begin near 2. Some of the results follow. Active and inactive are the calls of the source.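 How the source made its calls: active means z-score in the third read window above 3 or below -3; inactive means the rest.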
# Biological target: Metabotropic glutamate receptor 8 (Rattus norvegicus) (UniProt P70579)
# Assay: mGluR8 Gi/Go-coupled signaling modulation – cell-based, rat, thallium flux, HTS, primary screen (AID 488969)
# Settings: HEK293 rat mGluR8, GIRK (G protein-gated inwardly rectifying potassium channel) thallium flux, FluoZin2; at 10 µM; stronger effect = higher value; submaximal glutamate (EC20) added with thallium
# Sequence of UniProt P70579 (P70579 whole entry, looked up): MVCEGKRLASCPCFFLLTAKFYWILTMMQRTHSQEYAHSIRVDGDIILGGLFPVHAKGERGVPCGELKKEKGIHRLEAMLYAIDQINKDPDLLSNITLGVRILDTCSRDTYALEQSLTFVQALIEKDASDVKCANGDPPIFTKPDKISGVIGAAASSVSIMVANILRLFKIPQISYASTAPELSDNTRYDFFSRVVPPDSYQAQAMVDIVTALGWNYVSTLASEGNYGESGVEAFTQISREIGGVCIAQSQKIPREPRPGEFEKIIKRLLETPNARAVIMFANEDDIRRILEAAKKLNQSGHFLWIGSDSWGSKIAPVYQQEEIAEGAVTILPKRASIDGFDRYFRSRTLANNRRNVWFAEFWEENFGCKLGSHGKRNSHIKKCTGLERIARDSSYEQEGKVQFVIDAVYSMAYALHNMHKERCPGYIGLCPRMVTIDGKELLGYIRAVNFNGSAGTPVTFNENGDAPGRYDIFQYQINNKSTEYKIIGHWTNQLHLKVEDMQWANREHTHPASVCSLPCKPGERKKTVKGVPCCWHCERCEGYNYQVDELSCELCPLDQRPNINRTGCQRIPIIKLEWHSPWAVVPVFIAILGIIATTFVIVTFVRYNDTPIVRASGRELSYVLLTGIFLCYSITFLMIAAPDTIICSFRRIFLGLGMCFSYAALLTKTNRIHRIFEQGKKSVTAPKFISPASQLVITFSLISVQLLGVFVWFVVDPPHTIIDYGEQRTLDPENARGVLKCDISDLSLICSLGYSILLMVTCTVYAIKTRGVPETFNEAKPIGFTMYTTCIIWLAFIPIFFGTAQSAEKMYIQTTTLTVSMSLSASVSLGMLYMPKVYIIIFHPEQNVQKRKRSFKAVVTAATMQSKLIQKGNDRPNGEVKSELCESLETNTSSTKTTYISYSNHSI
row,SMILES,z-score
1,N#Cc1nc(-c2ccccc2)oc1NCc1ccco1,-0.705
2,Cc1coc2cc3oc(=O)c(Cc4ccccc4)c(C)c3cc12,-0.211
3,CC(/C=C/c1cccc([N+](=O)[O-])c1)=N/NC(=O)c1cccnc1,0.153
4,O=C(CSc1nc2ccccc2[nH]1)NC1CCCc2ccccc21 (stereo not drawn),2.41
5,N=c1c(-c2nc3ccccc3[nH]2)cc(C(=O)c2cccs2)nn1-c1ccccc1,-0.503
6,CC(C)N=C(NS(=O)(=O)c1ccccc1)C(Cl)(Cl)Cl,-0.332
7,CCN(CC)S(=O)(=O)c1cccc(-c2cn3cc(C)ccc3n2)c1,-0.0561
8,O=S(=O)(N/N=C\c1cccn1-c1ccccc1)c1ccc2ccccc2c1,-0.422
9,Cc1c(CCOC(=O)C23CC4CC(CC(C)(C4)C2)C3)sc[n+]1Cc1ccccc1,-0.00408
10,COc1ccc(Cn2c(SC)nc3ccccc32)cc1[N+](=O)[O-],-0.0198
11,Cc1ccc(NC(=O)C(NS(=O)(=O)c2cccc3nsnc23)C(C)C)nc1 (stereo not drawn),0.00924
12,CSc1ncccc1C(=O)OCn1nnc2ccccc2c1=O,0.583
13,Cn1nnc(NC(=O)c2ccccc2F)n1,0.261
14,O=C1CC(c2ccccc2)N1c1ccccc1 (stereo not drawn),-0.0215
15,CCn1ncc(/C=C/C(=O)NCc2cn(C)nc2C)c1C,0.00593
16,Cc1cc(C(=O)OCC(=O)Nc2cccc(S(=O)(=O)N3CCOCC3)c2)c(C)o1,-0.115
17,CCCCn1c(N)c(Sc2ccc(Cl)cc2)c(=O)[nH]c1=O,-1.52
18,O=C(Nc1c2c(nn1-c1ccc(F)cc1)CS(=O)C2)C12CC3CC(CC(C3)C1)C2 (stereo not drawn),0.22
19,Cc1ccc2nc(Cl)c(/C=N/NC(=O)c3ccccc3O)cc2c1,-0.193
20,COc1ccc(-c2ccc(=O)n(CC(=O)NCc3ccco3)n2)cc1,-0.186
21,CCCCNC(=O)c1onc(CSc2ccc(F)cc2)c1C(=O)O,-0.458
22,Cc1cnc(C)c(N2CCC(C(=O)NCc3ccco3)CC2)n1,0.265
23,CCN1C(=O)C2C(c3cccc(F)c3)NC(C)(C(=O)OC)C2C1=O (stereo not drawn),0.07

row,SMILES,z-score
1,CCOc1ccc(/C=N/NC(=O)C2(O)c3ccccc3-c3ccccc32)cc1,-0.134
2,COc1ccc(C(=O)NC(=S)Nc2nnn(C)n2)cc1,-0.935
3,CCOC(=O)c1c(NC(=S)NC(C)=O)sc(C)c1C,0.353
4,Cc1occc1-c1nnc(SCC(=O)Nc2ccc3c(c2)OCO3)n1CC1CCCO1 (stereo not drawn),-0.473
5,CC(C)(C)NC(=O)Nc1ccccc1C(N)=O,0.13
6,CC(=O)Nc1cccc(NC(C)=C(C#N)C#N)c1,-0.0637
7,CCN(CC)C(=O)NC(c1ccc(C)c(F)c1)C(Cl)(Cl)Cl (stereo not drawn),-0.501
8,COc1ccc(/C=C/C(=O)Nc2ccc3c(c2)OCCO3)cc1OC,0.00357
9,O=C(CSc1ccccc1)N1CCN(c2ccccc2)CC1,-0.0289
10,O=C(CSc1nnc(Nc2ccccc2F)s1)Nc1cccc(S(=O)(=O)N2CCCCC2)c1,-0.487
11,S=C1NC(c2cccs2)=CC(c2ccc(Br)cc2)N1 (stereo not drawn),0.185
12,Cc1ccc(Nc2cccccc2=O)cc1,0.593
13,Cc1cc(/C=N/NC(N)=S)c(C)n1-c1ccc(Cl)c(Cl)c1,-0.189
14,COc1ccc2nc(NC3=NCCC3)sc2c1,0.827
15,COc1ccc(C(=O)c2ccc(N3CCOCC3)cc2)c(OC)c1,0.0558
16,O=C(N/N=C\c1cccc(OC(=O)c2ccco2)c1)c1ccc2c(c1)OCO2,-0.123
17,CCS(=O)(=O)C(=C1Nc2ccccc2N1)S(=O)(=O)CC,0.884
18,Cc1ccc(C2C3=C(CC(C)(C)CC3=O)N(CCN3CCOCC3)C3=C2C(=O)CC(C)(C)C3)cc1,-2.9
19,Cc1cccc(C(=O)NNC(=O)C(=O)NC(C)(C)C)c1,2.45
20,Clc1cccc(Cl)c1CON/C=N/c1ncnc2sccc12,0.0115
21,C=CCn1c(SCC(=O)Nc2cc(C)on2)nc2sc3c(c2c1=O)CCCC3,0.151
22,Cc1noc(C)c1C(=O)N1CCc2ccccc21,-0.354
23,O=C(NNc1c(Cl)cc(Cl)cc1Cl)C1CCC1,-0.0924

row,SMILES,z-score
1,CC(C)CNc1cc(N2CCCC2)ccc1[N+](=O)[O-],-1.85
2,N/C(COc1ccccc1)=N\NS(=O)(=O)c1ccccc1,-0.0376
3,COc1cccc(CNC(=O)CCS(=O)(=O)c2cccc3nsnc23)c1,0.124
4,COc1ccccc1NC(=S)NNC(=O)c1ccc(Cl)cc1Cl,-0.541
5,O=C(c1ccc(Cl)cc1)c1cc(-c2ccccn2)c(N2CCOCC2)s1,-0.873
6,COc1ccc(N2CCN(C(=O)Nc3cccc(C(F)(F)F)c3)CC2)cc1,-0.347
7,O=C(NCCN1CCN(C(=O)c2cc3ccccc3oc2=O)CC1)c1cc2ccccc2oc1=O,0.204
8,CCc1cccc(N=c2c([N+](=O)[O-])nn(-c3ccc(Cl)cc3)n2O)c1,-0.121
9,CCn1c2ccccc2c2cc(N=C3SC(CC(=O)Nc4ccccc4OC)C(=O)N3C)ccc21 (stereo not drawn),-0.0766
10,O=c1c2c3c(sc2nc2n1CCCCC2)CCC3,-0.21
11,O=C(O)CNC(=O)c1ccc(S(=O)(=O)N2CCOCC2)cc1,0.515
12,CCCCNC(=O)C1CC(=O)N(c2ccc(OC)cc2)C1c1ccc(OC)cc1 (stereo not drawn),-0.281
13,Nc1ccc(S(=O)(=O)N2CCCc3ccccc32)cc1,-0.0978
14,Cc1cccc(OCC(=O)Nc2ccccc2N2CCN(C(=O)C(C)C)CC2)c1C,-2.4
15,O=C(CN1C(=O)c2cccc3cccc(c23)C1=O)N1CCN(c2ccccn2)CC1,active: 8.64
16,CCNS(=O)(=O)c1ccc(NC(=S)NCc2ccco2)cc1,-0.206
17,CCN(CC)C(=O)c1cc2c(=O)oc3ccccc3c2s1,-0.682
18,CCOC(=O)CSC1=C(C#N)C(c2ccccc2)C(C(C)=O)=C(C)N1 (stereo not drawn),-0.808
19,O=C(NCCCCO)C(F)(F)C(F)(F)C(F)(F)C(=O)NCCCCO,0.251
20,CC(C)n1c(=S)[nH]c2ccccc21,-0.0644
21,CC(C)C(=O)N=C1SC2CS(=O)(=O)CC2N1Cc1ccccc1 (stereo not drawn),-0.173
22,Cc1ccc(C)c(Cn2c(CN(C)Cc3ccccc3)nc3c2c(=O)n(C)c(=O)n3C)c1,-0.41
23,CCN1C(=O)/C(=C\N(C)C)NC1=S,-0.121

row,SMILES,z-score
1,CC(C)Cn1c(CCC(=O)O)ccc1-c1cccs1,1.1
2,O=S(=O)(NCc1ccc(F)cc1)c1cccc(S(=O)(=O)N2CCOCC2)c1,0.531
3,O=C(NNC(=O)c1ccc(SCC2CCCO2)c([N+](=O)[O-])c1)c1ccc(Cl)c([N+](=O)[O-])c1 (stereo not drawn),-0.537
4,Cc1cc(C(=O)NCC(=O)OCC(=O)N(C(C)C)C(C)C)ccc1[N+](=O)[O-],-0.0582
5,CCCCSc1nnc([C@H](CC(C)C)NC(=O)OC(C)(C)C)o1,-0.246
6,Cc1ccc(NC2OC(C(O)CO)C(O)C2O)cc1[N+](=O)[O-] (stereo not drawn),-0.123
7,Cc1ccc(C)c(CN2CCNC2=O)c1,0.218
8,O=c1c2ccccc2nc(-c2cccc(Cl)c2)n1O,1.74
9,Cc1cc2ccccc2c(=O)n1CC(=O)NCC(=O)N(C)C1CCCCC1,0.799
10,CC1(C)CC(=O)C(N=Nc2ccc(Cl)cc2)=C(O)C1,-0.154
11,Cc1cc(Oc2ccc(-c3nnc(-c4ccccc4)o3)cc2[N+](=O)[O-])ccc1Cl,-0.279
12,C=CCn1c(=NC(=O)C2COc3ccccc3O2)sc2cc(S(N)(=O)=O)ccc21 (stereo not drawn),0.0113
13,CCn1cc(C2=NOC(C(=O)Nc3ccc4c(c3)OCO4)C2)c(C)n1 (stereo not drawn),0.0389
14,COc1cccc(/C=N/NC(=O)CSCC(=O)Nc2ccccc2)c1O,-0.191
15,CCOC(=O)CNC(=O)c1sc(NC(=O)c2ccccc2)nc1C,0.176
16,CCOc1cc(/C=N/NC(=O)Cc2ccc(C(F)(F)F)cc2[N+](=O)[O-])c(Br)cc1OC,-0.0757
17,COC(=O)c1nn(-c2ccccc2)c2nnc(Cc3ccc(C)cc3)c(=O)n12,-0.114
18,Nc1c(C(=O)Nc2ccc(Br)cc2)sc2nc(-c3ccco3)ccc12,0.0153
19,COc1ccc(-n2c(COc3ccccc3)nnc2SCc2ccc(C#N)cc2)cc1,0.247
20,CC(C)C(c1nnnn1Cc1ccco1)N1CCC(C(N)=O)CC1 (stereo not drawn),0.191
21,COc1cc(NC(=S)N2CCC(C(N)=O)CC2)cc(OC)c1,-0.169
22,Cc1ccc(-n2ncc(C#N)c2/N=C/N2CCN(C)CC2)cc1,-0.463
23,COc1cc2cc(CN(Cc3ccc4c(c3)OCO4)C(=O)c3ccco3)c(=O)[nH]c2cc1OC,-0.66

row,SMILES,z-score
1,Cc1nc(-c2cccc(NS(=O)(=O)c3ccc4ccccc4c3)c2)cs1,0.0725
2,COCC(=O)Nc1ccc(Nc2ccccc2)cc1,0.124
3,Cc1ccccc1NC(=O)C(c1ccccc1)C1CCCC1 (stereo not drawn),-0.329
4,Cc1cc(OCC(=O)Nc2ccc(OCc3ccccc3)cc2)nc(C(C)C)n1,0.00365
5,COc1cc(Cl)c(C)cc1NC(=O)CSc1nnc(-c2cccnc2)n1Cc1ccco1,-2.15
6,Cc1cc(C(=O)Nc2nc3ccc(S(C)(=O)=O)cc3s2)c(C)o1,-0.188
7,CNc1nnc(-c2ccncc2)s1,-0.566
8,CCCc1nnc(NC(=O)CC(=O)OCC)s1,-0.966
9,CNC(=O)c1cc(C)c(-c2ccccc2)s1,1.08
10,Cc1cc2ncn(/N=C/c3ccc([N+](=O)[O-])s3)c2cc1C,-0.187
11,COc1ccc(C2C3=C(CC(c4ccco4)CC3=O)Nc3ccccc3N2C(C)=O)cc1 (stereo not drawn),-0.217
12,O=c1[nH]c(=O)n(C2CCCO2)cc1Br (stereo not drawn),-0.195
13,COc1ccc(C(O)C(CN2CCOCC2)c2ccccc2)cc1 (stereo not drawn),-0.181
14,CS(=O)(=O)c1sc2nc(-c3ccccc3)cc(-c3ccccc3)c2c1N,0.56
15,Cc1ccccc1Cn1cnc2c(cnn2C(C)(C)C)c1=O,0.463
16,Cn1nnnc1SCC(=O)Nc1c(Cl)cccc1Cl,0.508
17,CC(C)c1ccc(C(=O)CSc2ncn[nH]2)cc1,-0.4
18,COc1ccc(C)cc1NC(=O)C(Sc1ccccc1)c1ccccc1 (stereo not drawn),0.296
19,Cc1ccc2nc(SCc3cccc([N+](=O)[O-])c3)nc(C)c2c1,-0.0375
20,Cc1cc(C)n(-c2nc(NCCC(C)C)c3c4c(sc3n2)COC(C)(C)C4)n1,-0.867
21,CCOc1ccc(C2=C(C=Nc3c(C)n(C)n(-c4ccccc4)c3=O)C(c3ccc(F)cc3)c3ccccc3O2)cc1 (stereo not drawn),1.53
